Laboratory results reported in PubChem BioAssay AID624417 (National Center for Advancing Translational Sciences (NCATS), 2012).
“And” between values parts separate entries of the source, which are not always exact repeats. Equal values may be shown once. The campaign covered roughly 410,000 compounds. About 6,400 (1.6%) were called active. The inconclusive results got no clear call from the source; some entries with a clear call stand among them for comparison. Calls come from the whole dose curve; as a rule, active = well fitted inhibition curve with a large enough effect; inconclusive = small, poorly fitted or top-dose-only effect; inactive = no such curve, though single readings can be large or run the other way. Potencies beside an inconclusive call are fits to weak or partial responses and may not hold up.

These compounds were tested against Glucagon-like peptide 1 receptor (Homo sapiens) (UniProt P43220) (assay: qHTS of GLP-1 Receptor Inverse Agonists (Inhibition Mode)). Details: HEK293 GLP-1R CRE-luciferase, luminescence, 24 h, GLP-1R form is constitutively active; activity change, negative = inhibition: at 38.3 µM (top of the series) unless noted.
In short: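 Stable HEK293 clone (constitutively active GLP-1R + cAMP-response luciferase); 200 cells/uL plated, 12 h pre-culture, compound 24 hr, 37 deg C/5% CO2; detection reagent 12 min RT; luminescence.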
% is set by controls: 0 for no effect and ±100 for the full control effect; potency is the fitted concentration of half-maximal effect; tags give direction and shape of the fitted curve.
Note: nearly all actives have a fitted effect of over 55% in size.

Sequence of UniProt P43220 (P43220 whole entry, looked up): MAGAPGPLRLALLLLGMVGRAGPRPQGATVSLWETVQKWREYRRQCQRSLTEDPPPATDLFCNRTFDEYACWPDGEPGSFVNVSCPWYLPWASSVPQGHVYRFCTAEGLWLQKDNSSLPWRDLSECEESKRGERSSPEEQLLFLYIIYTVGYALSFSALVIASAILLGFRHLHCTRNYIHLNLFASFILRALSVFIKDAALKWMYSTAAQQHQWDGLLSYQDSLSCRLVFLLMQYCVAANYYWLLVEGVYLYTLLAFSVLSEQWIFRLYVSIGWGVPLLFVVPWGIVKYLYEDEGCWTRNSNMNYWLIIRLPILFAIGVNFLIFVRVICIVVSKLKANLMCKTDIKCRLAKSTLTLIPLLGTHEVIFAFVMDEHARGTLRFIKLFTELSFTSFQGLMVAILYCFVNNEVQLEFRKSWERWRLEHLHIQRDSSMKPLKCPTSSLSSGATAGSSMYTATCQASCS

SMILES | activity change, negative = inhibition | Potency
Cc1nc(N2CCOCC2)c2c(C(=O)N(C)Cc3ccccc3)c(C)oc2n1 | inactive: 12.9% | –
CCCCCCSc1ccc([C@@H]2[C@@H]3C(=O)N(C)C(=O)[C@@H]3[C@]3(C(=O)OC)CCCCN23)cc1 | – | inconclusive: 5.62 µM [inhibitor, partial curve, poor fit]
CNC(=O)C1CC(=O)N(Cc2ccc3c(c2)OCO3)C(=Nc2ccc(OC)cc2)S1 (centres undefined) | – | inconclusive: 10 µM [inhibitor, single point]
CCOc1ccc(N(Cc2ccc(OC)c(OC)c2)C(=O)c2ccco2)cc1 | – | inconclusive: 10 µM [inhibitor, single point]
CCOc1ccc(NC(=O)CN2CCN(CC(=O)Nc3ccccc3OC)CC2)cc1 | – | inconclusive: 11.2 µM [inhibitor, single point]
COc1cccc(NC(=O)CN(C)C(=O)c2ccc(S(=O)(=O)Nc3ccccc3C)cc2)c1 | – | inconclusive: 28.2 µM [inhibitor, single point]
COc1ccc(OC)c(C2=NOC(C(=O)Nc3ccccc3SC)C2)c1 (centres undefined) | – | inconclusive: 28.2 µM [inhibitor, single point]
CCOC(=O)C1CCN(c2cc(C)nc3c(-c4ccccc4OC)c(C)nn23)CC1 | – | inconclusive: 28.2 µM [inhibitor, single point]
Cc1cccc(N2CCN(C(=O)C3CCC(CNS(=O)(=O)c4cccs4)CC3)CC2)c1C (centres undefined) | – | inconclusive: 4.47 µM [inhibitor, full curve, poor fit]
Cc1cccc(C)c1Nc1nnc(SCC(=O)Nc2cc(S(=O)(=O)N3CCCCC3)ccc2Cl)s1 | – | inconclusive: 28.2 µM [inhibitor, partial curve, poor fit]
Cn1cccc1/C=N/n1c(-c2ccc(C(C)(C)C)cc2)n[nH]c1=S | – | inconclusive: 10 µM [inhibitor, partial curve, poor fit]
CCN(CC)S(=O)(=O)c1cc(-c2nnc(-c3ccc(Br)cc3)o2)ccc1Cl | – | inconclusive: 1.26 µM [inhibitor, full curve, poor fit]
CSc1ccccc1OCc1cc(C(=O)N(C)C2CCCc3ccccc32)no1 (centres undefined) | – | inconclusive: 11.2 µM [inhibitor, partial curve]
Cc1ccc(C(C(=O)NC(C)(C)C)N(C(=O)CCC(=O)Nc2ccccn2)c2ccccc2F)cc1 (centres undefined) | – | inconclusive: 10 µM [inhibitor, single point]
CN1CCN(CCCN(Cc2ccco2)C(=S)Nc2ccc(Cl)cc2)CC1 | – | inconclusive: 31.6 µM [inhibitor, partial curve, poor fit]
Cc1cc(/C=C2\Cc3ccccc3C2=O)c(C)n1-c1ccccc1 | – | inconclusive: 5.62 µM [inhibitor, partial curve, poor fit]
C=CCNCCOCCSc1ccc(Cl)cc1 | – | inconclusive: 10 µM [inhibitor, partial curve, poor fit]
CCCCC(=O)N(C)c1c(CC)nc2c(OCCOc3ccc(F)cc3)cccn12 | – | inconclusive: 11.2 µM [inhibitor, partial curve, poor fit]
O=C(CN1CCCc2ccccc21)Nc1cccc(S(=O)(=O)N2CCCC2)c1 | – | inconclusive: 7.94 µM [inhibitor, partial curve, poor fit]
NC(N)=N/N=C/c1ccc(OCc2ccc(Cl)cc2)cc1 | – | inconclusive: 8.91 µM [inhibitor, single point]
Cc1cc(NC(=O)c2cc(-c3ccc(Br)cc3)on2)nn1Cc1ccc(Cl)cc1 | – | inconclusive: 20 µM [inhibitor, single point]
CCCCN1c2ccccc2N(CCCO)c2cc(C)nnc21 | – | inconclusive: 28.2 µM [inhibitor, single point]

SMILES | activity change, negative = inhibition | Potency
CCOc1ccc(N(C(C)C(=O)NCCSc2ccc(Cl)cc2)S(C)(=O)=O)cc1 (centres undefined) | – | inconclusive: 10 µM [inhibitor, partial curve]
CCCCCCCCNCCS(=O)(=O)NC1CCCCC1 | – | inconclusive: 22.4 µM [inhibitor, single point]
CCOC(=O)Cn1c(=O)c2c(nc(N3CCOCC3)n2Cc2ccccc2)n(C)c1=O | inactive: -25.7% | –
Cc1ccc(/C=N/NC(=O)c2ccc(N(C)S(=O)(=O)c3ccccc3)cc2)cc1 | – | active: 10 µM
O=C(NCC1CCCO1)c1cc(-c2ccc(Cl)cc2Cl)on1 (centres undefined) | – | inconclusive: 28.2 µM [inhibitor, single point]
O=C(COc1ccc([N+](=O)[O-])cc1)N1CCC(c2nc3ccccc3s2)CC1 | – | inconclusive: 11.2 µM [inhibitor, partial curve, poor fit]
CCOc1ccc(NC(=S)NNc2ccnc3cc(Cl)ccc23)cc1 | – | inconclusive: 28.2 µM [inhibitor, single point]
CCOc1cccc(CN2CCN(CCCc3ccccc3)C(CCO)C2)c1O (centres undefined) | – | inconclusive: 6.31 µM [inhibitor, partial curve, poor fit]
Oc1[nH]c2ccc(Br)cc2c1N=Nc1ccc(C(F)(F)F)cn1 | – | inconclusive: 3.98 µM [inhibitor, full curve]
CCCC1=Nc2cc(C(=O)NCCN3CCOCC3)ccc2Sc2ccc(C)cc21 | – | inconclusive: 10 µM [inhibitor, partial curve, poor fit]
Cc1ccc(S(=O)(=O)N(C)CCCC(=O)Nc2cc(C)ccc2C)cc1 | – | inconclusive: 28.2 µM [inhibitor, single point]
O=C(CSc1nc2ccccc2c(=O)n1-c1ccc(F)cc1F)Nc1ccc2c(c1)CCC2 | – | inconclusive: 2.51 µM [inhibitor, full curve, poor fit]
CCOC(=O)c1cc(-c2ccc(C#N)cc2)nc2c1c(C)nn2CCC#N | inactive: 26.5% | –
O=C1CSc2ccc(S(=O)(=O)NCc3ccc(F)cc3)cc2N1 | inactive: -2.63% | –
Cc1ccc(NC(=O)C2(C)CCN2Cc2csc3ccccc23)cc1 (centres undefined) | – | inconclusive: 7.94 µM [inhibitor, partial curve, poor fit]
Cn1cc(C(CO)Cc2ccccc2)c2ccccc21 (centres undefined) | – | inconclusive: 20 µM [inhibitor, partial curve, poor fit]
CC(C)CCOc1ccc(C(=O)NN2C(=O)NC3(CCCCC3)C2=O)cc1 | – | inconclusive: 11.2 µM [inhibitor, single point]
CC(=O)c1cccc(NC(=O)c2cc(-c3ccco3)nc3ccccc23)c1 | inactive: -33% | –
CC(C)(Oc1ccc(Cl)cc1)C(=O)NCc1ccco1 | – | inconclusive: 28.2 µM [inhibitor, single point]
Cc1cc(NC(=O)CSCC(=O)Nc2ccccc2Oc2ccccc2)no1 | – | inconclusive: 28.2 µM [inhibitor, single point]
COc1ccc(OCC(=O)N/N=C/c2cccc3cccnc23)cc1 | – | inconclusive: 31.6 µM [inhibitor, single point]
CN(C)c1ccc(N/C=C/C(=O)c2ccc(F)cc2)cc1 | – | inconclusive: 28.2 µM [inhibitor, single point]

SMILES | activity change, negative = inhibition | Potency
COc1ccc(C(=O)c2coc3c2C(=O)C(=O)c2ccccc2-3)cc1 | inactive: -5.73% | –
CCOC(=O)C(NC(C)=O)(Nc1cccc(F)c1)C(F)(F)F (centres undefined) | inactive: 7.44% | –
CCC12CN3CC(CC)(CN(C1)C3c1ccc(OC(C)C)cc1)C2=O (centres undefined) | – | inconclusive: 12.6 µM [inhibitor, partial curve, poor fit]
COc1ccccc1NS(=O)(=O)c1ccc(C)c(NC(=O)NC2CCCCC2)c1 | – | active: 11.2 µM
CCOC(=O)CC(NC(=O)Cn1nnc(-c2ccc(C(F)(F)F)cc2)n1)c1ccc(C)cc1 (centres undefined) | inactive: 7.36% | –
c1ccc(CSc2ccc(-c3ccco3)nn2)cc1 | – | inconclusive: 28.2 µM [inhibitor, single point]
COc1ccc(Br)cc1[C@H]1[C@H]2C=CC[C@@H](C)[C@@H]2C(=O)N1Cc1ccccc1 | – | inconclusive: 3.16 µM [inhibitor, full curve, poor fit]
CCOc1cc(NC(=O)CCl)c(OCC)cc1NC(C)=O | – | inconclusive: 28.2 µM [inhibitor, single point]
O=C(O)/C=C/c1cn(Cc2ccccc2)nc1-c1ccccc1 | inactive: 0% | –
CCc1ccc(S(=O)(=O)N2CCN(Cc3ccco3)CC2)cc1 | – | inconclusive: 3.16 µM [inhibitor, single point]
OCCN1CCN(CC(O)COc2ccc3ccccc3c2)CC1 (centres undefined) | – | inconclusive: 8.91 µM [inhibitor, partial curve, poor fit] and inconclusive: 31.6 µM [inhibitor, partial curve, poor fit]
CC(Sc1ccc(Cl)cc1)C(=O)NCC(c1ccco1)N1CCCCC1 (centres undefined) | – | active: 11.2 µM
O=C(OCC1OC(n2cnc3c(N(C(=O)c4ccccc4)C(=O)c4ccccc4)ncnc32)C(O)C1F)c1ccccc1 (centres undefined) | inactive: -13.7% | –
CCOC(=O)c1sc(NC(=O)c2ccc3ncsc3c2)nc1C | – | inconclusive: 0.501 µM [inhibitor, full curve, poor fit]
Cc1ccccc1S(=O)(=O)NC(=O)C1(C)CCN1C(=O)C1(c2ccccc2)CCCC1 (centres undefined) | inactive: -25.9% | –
O=S(=O)(N/N=C1\CC(c2ccccc2)Oc2ccccc21)c1ccccc1 (centres undefined) | – | inconclusive: 12.6 µM [inhibitor, single point]
COc1ccc(C(CNC(=O)c2ccccc2C)N2CCCC2)cc1 (centres undefined) | inactive: 0% | –
Cc1ccc(S(=O)(=O)N2CCN(Cc3csc(C)n3)CC2)cc1 | inactive: 16.6% | –
C/C=C\C=C/C(=O)Nc1cccc(C2=NOC3(C2)C[C@H](C(N)=O)N(C(=O)CC)C3)c1 (some centres undefined) | inactive: 12.4% | –
C(=C1c2ccccc2-c2ccccc21)c1ccncc1 | – | inconclusive: 28.2 µM [inhibitor, single point]
